Measured values: the RNAGym collection of RNA variant scans (doi:10.7554/elife.90254)
The source gives no read counts; variants with many changes may rest on few reads.

B1: LINE1-mini (parent)
chain: GGCAGAGCUCAACACAGCGUGGCAAAGUGGCUGUGGCUAGACUGCC

Variants of: B1
Test: self-cleavage, relative activity (ratio to wild type); higher = more cleavage; in vitro, sequencing; the parent is a self-cleaving ribozyme

Row | Variant | self-cleavage
1 | U20C G22C C37U U43A | 0
2 | G1A A26C G36U | 0.03
3 | G2U G5U A11U A39U G40U | 0
4 | U9A U20C A39G | 0
5 | G7A A12C A26U | 0.01
6 | A11C G36U C37U U43C C45U | 0
7 | G5U A16G U20C C23A C42G C46U | 0.02
8 | C3U G5C G7C G30U G36C | 0.17
9 | G2U G44A C46A | 0.03
10 | A6U U34G G40C | 0.03
11 | G2U C3A C13U G44U C46U | 0.24
12 | A4G G7A A25U G40C | 0.34
13 | G21C A25C C42U | 0.17
14 | A24U U34A A39C C46U | 0.04
15 | C13G G44A C45A | 0.05
16 | C10U A14U C18U | 0.02
17 | G5U A12U G22A | 0.03
18 | U20A A24G G30C G33U C46U | 0.02
19 | U28C G29U G33C | 0.05
20 | G22C C31G G35U U38A | 0.03
21 | G2U A4C U9G G27U U38A | 0.03
22 | C8G U9G C13U | 0.04
23 | G2U U34A C46U | 0.03
24 | A6G C13A C45A | 0.12

Row | Variant | self-cleavage
25 | G1A C8G A25C | 0.2
26 | G2C A6G G22A | 0.04
27 | U9G A12G G21A | 0.01
28 | C3U A12G G21U C23A | 0.03
29 | C3A C13A A25G | 0.08
30 | U34A G44C C46U | 0.06
31 | C18U C31A G33A | 0.05
32 | G1A C15U C18A G27A C46U | 0.16
33 | C13A A16U C18U U34A A41G C46U | 0.04
34 | C10G G21C A25U G30A U32C U34A C45G | 0
35 | C8U C13A G27A | 0.29
36 | G7C G27A G29U | 0.08
37 | C8G C10A A41C | 0.02
38 | A14U C23G A26C | 0.42
39 | A12G C31U G33C G44A | 0.02
40 | A16U A24C G29U C46G | 0.02
41 | C18A G21C C42U | 0.03
42 | A4G G19A A25C | 0.43
43 | C3U C15A G21U G30A | 0.06
44 | G7A C8A G21A | 1.05
45 | G1A C3A G7U G21A C45G | 1
46 | G7C C23U A25C | 0.06
47 | G1C C18U U20C A26U | 0.05
48 | G5A A12C C18G G29U G35C | 0.03

Row | Variant | self-cleavage
49 | G2U C3U C45A C46G | 0.08
50 | C3U G21C A24U | 0.4
51 | G7A G19A U28C G33A U38A G44A | 0.2
52 | A4U C13U C15A U20A A24U G29A | 0.02
53 | A11C U20G C37A C46A | 0.01
54 | G7U C8U U9A | 0.34
55 | A6G G19A A26C A41C | 0.05
56 | U9C A26G G44C | 0
57 | C8U G19A C46G | 0
58 | C3U C13U U20C A39C | 0.08
59 | C13U G29U U32C | 0.15
60 | A4G A16G U20A A26C | 0.09
61 | A6C G40A G44A C46A | 0.01
62 | C3A A4U G33C | 0.03
63 | G1U C8U U34G | 0.05
64 | G17C A24C A25U G33A | 0
65 | C3U G21A C37A | 0.51
66 | C3G A12G A16C U28A | 0.18
67 | A6U C37G A39G | 0.02
68 | A16G C18U G30A U34C | 0.02
69 | C8U G30C C37G | 0.14
70 | A4G C18G C37U | 0.04
71 | C3U G22A G33U | 0.1
72 | A4U G22C U38A G40A | 0.09

Row | Variant | self-cleavage
73 | G7U A11G A12G A25U C31A U43G | 0
74 | U28G G29A G30A C42U | 0.07
75 | A6C G33A G36U | 0.03
76 | G2A G7U G21U | 0.22
77 | C3U A4G A11G U38A | 0.03
78 | C3G G5U U20G C37A C42A G44A | 0.33
79 | A12C C15U C31A | 0.01
80 | C3G A4G C8G C18A C37G U43A | 0.01
81 | U34A C42U C46A | 0.02
82 | C3G C10U C23A A25C G33A | 0.04
83 | G5C C8G A14U C31A A41U | 0.12
84 | A12C C31U C37U | 0.02
85 | C18U C37U C42G | 0.04
86 | A16U G30C G33C C45U | 0.03
87 | C3G C10A C23U C31G C37G G44C | 0
88 | C31G C37G C45U | 0
89 | G33C C37U A39C | 0.03
90 | C8A C10U C23A U43G | 0.01
91 | A4G C37A C45U | 0.03
92 | C3G C18U C37G C46U | 0.03
93 | C3G G19C A24C G36C | 0.01
94 | U9G G21U A26U | 0.06
95 | A4U C18U U28G G36C U38A | 0.14
96 | G5A C23G G27U | 0.12

Row | Variant | self-cleavage
97 | C8A U9A C10U G36U U38G | 0.02
98 | G5C C18A G27C U28A G36C | 0.05
99 | C8A C10G G44C | 0.05
100 | G1A G2A G5U G27A | 0.26
101 | A12G C18A C31U G36U | 0.02
102 | A6U U20C A24C U34A U38C | 0.02
103 | G2U G21U A41G U43C | 0
104 | A24C G27A C42A | 0.09
105 | A16C G21U U32A U38G | 0
106 | G1C C3U C13G G27A | 0.19
107 | G7U U9A A11U | 0.06
108 | U28G G30C C42G | 0.01
109 | G7U U28A G35A U38C | 0.02
110 | A26C G30U G35A U38G C46U | 0
111 | G5A G7C C15U G35U C42U | 0.08
112 | A4U G5C C15A C42G | 0.03
113 | G2C U9G U32G C42A | 0
114 | U20G G21U A26U | 0.29
115 | A11C A41G C45A C46A | 0.02
116 | G1A A6C A11G C15G | 0.04
117 | G2A C18U C31U | 0.04
118 | U9G A12C U20A G22U C37U U43G | 0
119 | U9G A14G G21A G35U | 0.02
120 | U9C C10U U20A | 0.01

Row | Variant | self-cleavage
121 | G5U C10A U34G | 0.02
122 | C8A U28C A39C C42G | 0.09
123 | G1C A12G U28G U34A C45G | 0
124 | G7C G33U A39G | 0.01
125 | C8A C18A G35U | 0.02
126 | A6C U9A G22A | 0.15
127 | U9C G29A G36U A41C | 0.05
128 | A4C G17A G27A | 0.07
129 | A26C G29U G36U | 0.05
130 | C23U G33U U34A C37A | 0.03
131 | G7A G36U C46A | 0.03
132 | G7U C15A G19U G30U U38G A39U | 0.1
133 | G7U U9G C46A | 0.12
134 | G5U C10G G22U U34G G44U | 0.01
135 | C15U G19A C31U | 0.1
136 | G7C A16C A39U U43A | 0.1
137 | C23A A25U G35A A41U | 0.33
138 | G5C G19C G27U | 0.1
139 | G7A A24U G29A | 0.05
140 | C3G C13A G21C C45A C46A | 0.07
141 | C3G A4C G29U | 0.14
142 | C23A A25U U28A C46A | 0.51
143 | G21C C31G U32C | 0.1
144 | A4U G7U U28A U32A | 0.09

Row | Variant | self-cleavage
145 | G1A C13A A14U U34C | 0.05
146 | A4U A6C U32G | 0.04
147 | G7C A14C U20C C46U | 0.02
148 | G5A A6C A11C C46A | 0.04
149 | G7A A25G A26C U28G | 0.03
150 | A4G U20C G35A C37A C45A | 0.01
151 | G33U G35U C37A | 0.04
152 | C8A U20A C31G C46A | 0.18
153 | A16C A25C C31U | 0.02
154 | A12U G17A G19U A39U | 0.04
155 | G2U A4C G5C C13U G22C | 0.17
156 | G2A G22A A26G C31G | 0.15
157 | A12C G29A C31U A41C | 0.02
158 | A6G A24G C31A G44A C46A | 0.03
159 | C18A U20C G21A C45A | 1.34
160 | A6U C10A A41G | 0.02
161 | A6U C8A A25C G36U | 0.15
162 | G5A A6C C15A A26U G30A C45U | 0.02
163 | C15U G17U G19C G30U G35U | 0.03
164 | G21U G22A A25C U28C G35A | 0.07
165 | G17A C23A A26G | 0.08
166 | A12G U20G G21U | 0.04
167 | G2U G35C C42A | 0.03
